Test results as given in the supplement of paper PMC11417369.
± gives the standard deviation of the averaged measurements. Some of the results follow.

System: PfAP2-I AP2 domain 3 (GST-tagged)
Assay: gcPBM binding intensity (ln(normalized median fluorescence intensity)); higher = stronger DNA binding
Procedure, shortened: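 Binding of GST-tagged P. falciparum DNA-binding domains, expressed in E. coli and used at about 25 μg on average, was carried out for 1 h in 1× PBS containing 1% milk, 0.2 mg/ml BSA, 0.5% salmon testes DNA and 0.03% Triton X-100. The target was an Agilent 4 × 180k array of primer-extended double-stranded 36-bp intergenic genomic probes plus negative controls, read with Alexa488 anti-GST antibody at 488 nm. Binding intensity is the highest Masliner-normalised natural-log median intensity across replicate spots of either probe orientation.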

Row | Sequence | gcPBM binding intensity (ln)
1 | TCATACGAAATATAAACACACATACAATAAATAAAT [CACACA_site5156] | 7.81 ± 0.52
2 | GATAGAAAAAAATAATGTACACACACATATATGTTT [XGTACX_site392] | 7.78 ± 0.55
3 | GGCAGCAATTTAGTTACACACATATATAGGTATACA [CACACA_site76] | 7.99 ± 0.43
4 | TACACATACCCATACACACGCATAGAAACATACGAA [CACACA_site5212] | 7.86 ± 0.3
5 | TATTTTTATTTTAATTGTACTTTTTAATTAATAATA [XGTACX_site8302] | 7.8 ± 0.45
6 | TTTCTTTTTTCTGTTATTATTATAAAACGATATTTA [TGCATGCA_negctrl_site167] | 7.64 ± 0.46
7 | TTTTTTTTTTTTATATGTACTAATAATCTTTTTTTT [XGTACX_site3552] | 7.96 ± 0.71
8 | GCTGAAAGGATAAAGGTGCATATTTTTTAAAAAATT [GTGCAC_site9487] | 10.4 ± 0.28
9 | AATATTTTATATGTAGTGCATTACTATAGGATTTAT [GTGCAC_site9424] | 11.4 ± 0.74
10 | ACAAAATAAACGGCTGCACACAAGAAGCACAATATT [CACACA_site3690] | 8.48 ± 0.79
11 | TGTGTCAAATAATTAATGTCATATATATTTTGTATA [CACACA_negctrl_site1479] | 7.63 ± 0.37
12 | TGCTTATATCTTATAATATTTATACATCATAATAAG [CACACA_negctrl_site629] | 7.61 ± 0.6
13 | GCATATAAAATAAATCGTACATGTAAAACATAATTA [XGTACX_site7077] | 7.71 ± 0.32
14 | TATAATATAATATTTTGTACATATGATAAAAAAAAA [XGTACX_site6858] | 7.75 ± 0.63
15 | ACACATATAAATAAAACATGCATATGTAAATATATA [TGCATGCA_site403] | 7.57 ± 0.54
16 | TCAAAATGTTACAAATTATGTTGGCTAAAATTTTAA [TGCATGCA_negctrl_site188] | 7.33 ± 0.67
17 | TTGAACCTGATAAATACACACAATATAGATTTTTTT [CACACA_site7091] | 7.46 ± 0.66
18 | AATTATACTCACGTTACACACACACTATATATATAT [CACACA_site9375] | 9.32 ± 0.16
19 | AGATATATTTTTTAAATTTAAAAATTATAAAATTTA [CACACA_negctrl_site533] | 7.52 ± 0.35

Row | Sequence | gcPBM binding intensity (ln)
20 | AAATATATCTTCTTTGCACACTTAAAGGGAAGTGAT [CACACA_site343] | 9.15 ± 0.085
21 | ACAATAATTTCCATCACACATATATTTATATATTAC [CACACA_site6003] | 7.87 ± 0.71
22 | TTGCATCTACATTTATGTACATATCTTATGATAAAT [XGTACX_site2146] | 7.79 ± 0.56
23 | ATACATATTCTTATTTGTACTTATTATAAAATGGTC [XGTACX_site6584] | 7.86 ± 0.21
24 | TAACTGATATATAAAACACACATCATAAAAATATAA [CACACA_site6499] | 7.51 ± 0.47
25 | TATATATGTATATATTTTATAAGTATGCAAGAAAAT [TGCATGCA_negctrl_site486] | 10.4 ± 0.12
26 | ATATTGGAATAAATTTGTACATATATATATTATTCA [XGTACX_site916] | 7.63 ± 0.47
27 | AAAATTTATAAAAGCACACAAAATAAAAAAAAATGA [CACACA_site1491] | 8.45 ± 0.27
28 | TGTACGAGTCGTAGAGTGCAGTCTGGAGAAGAGTAC [GTGCAC_site9684] | 9.32 ± 0.25
29 | TTTTGTTATATACAATAGATCAGAAGAAATGAAGTT [CACACA_negctrl_site1579] | 8.11 ± 0.5
30 | TTATAATATGTATACACACACATATATAAATATATA [CACACA_site2326] | 7.77 ± 0.38
31 | CAATGTTAACATATTACACACATATGTATATAGAAT [CACACA_site2732] | 7.95 ± 0.61
32 | CTTACGTATTAAGTGTGTCCGTAGTGTTCATAGTTC [XGTACX_site8913] | 7.81 ± 0.51
33 | TTTCAATAATAAAAAACACACACAAAAAAAAATAAT [CACACA_site8905] | 7.97 ± 0.5
34 | AAAAATATAAACACCAGTACACAAACCTATAATGGA [XGTACX_site3846] | 7.83 ± 0.63
35 | AAAGTAAATTTAAGCACACACAACGAATTTTTATAC [CACACA_site1959] | 8.71 ± 0.16
36 | AATATATGGTTTCATGATATTAAATACAATTTAATG [CACACA_negctrl_site1503] | 7.38 ± 0.33
37 | CTATAATTATGATGAAGTACATATGAGTTCAAAAAA [XGTACX_site3070] | 8.04 ± 0.41
38 | ATATATATATGTATATGTACTTATATTATTGTTTGT [XGTACX_site1466] | 8.96 ± 0.2

Row | Sequence | gcPBM binding intensity (ln)
39 | ACATAATGCTAGACACGTACGTACATCCGTGAGGTT [XGTACX_site4156] | 7.97 ± 0.74
40 | GTAAAAGAACGGCATGCATGAAAAATATTACACATG [TGCATGCA_site143] | 7.93 ± 0.58
41 | TTATTATTATATTCTACATGCAGTTTGTGTAGAACA [TGCATGCA_site455] | 7.81 ± 0.67
42 | TGAACTCAACAAAGGGTGCATAACAAAAATAGACGT | 11.4 ± 0.23
43 | TAAAATAAAAAGTTTACACACATATATAATTTTAAT [CACACA_site662] | 7.55 ± 0.54
44 | GAATTATATAATTAAAGTACATTGTTTATATAATCA [XGTACX_site7246] | 7.48 ± 0.33
45 | AACCATTTTAAATATGCACACAGATGCACTAACACA [CACACA_site8565] | 10.52 ± 0.057
46 | ATTTATATGGTTTGCACACATAACAACTATGGTTAT [CACACA_site3632] | 8.81 ± 0.4
47 | TTTACACGTACGTGTACACACAAAAATATGTTTTTA [CACACA_site995] | 8.21 ± 0.18
48 | GAAAGAAATAAAGGTGGTACATAAATAAAAACTAAG [XGTACX_site4826] | 8.3 ± 0.47
49 | AAATTCCACGGACACACACACATATAAATAAATAAA [CACACA_site4811] | 8.23 ± 0.37
50 | TGTAGTCTGGAGAAAAGTACATAGTATCTGGTAGCT [XGTACX_site2031] | 8 ± 0.67
51 | AACATAAAAAAAATATGTACATATATAATATATATA [XGTACX_site3764] | 8.38 ± 0.43
52 | TAATTTTTCTTTTATTAACACACATATAAATAAATA [CACACA_site8935] | 7.91 ± 0.47
53 | AAAAATAAAAAAAGCACACACATATAAATAAATATA [CACACA_site6968] | 7.75 ± 0.43
54 | TATATGACAAGATAAAGTACAAATTTGTATATATAT [XGTACX_site3027] | 8.54 ± 0.69
55 | ATATATTTATATATTACACACAATATTGTAGACATA [CACACA_site4669] | 7.8 ± 0.41
56 | CCCAATAATTAAACAACACACATATTTATAGGTAAT [CACACA_site7445] | 7.76 ± 0.85
